The text below walks through data of article PMC4238058, “Phase transitions of multivalent proteins can promote clustering of membrane receptors” (eLife, 2014).

The target of this experiment is T1, Nck (cysteine-modified; human, residues 1-377, C139S, C232A, C266S, C340S), fluorophore-labelled (human, C139S (stands in the printed letters) | C232A (stands in the printed letters) | …, maleimide Alexa568 (imaging of association and three color imaging) or Alexa488 (FRAP) on cysteine).
T1 construct: extra N-terminal residues printed before Met1, with the only cysteine left in the chain; Nck, human, residues 1-377 with C139S, C232A, C266S, C340S; The methods tell the expression and purification for GST-Nck; that the cysteine-modified form was made the same way is surmised; also called Nck Alexa568; Nck Alexa488; source: E. coli BL21(DE3)T1R, purified; labelled with a maleimide-conjugated …
Kind of experiment: fluorescence (TIRF) microscopy of reconstituted clusters on a supported lipid bilayer; His8-p-Nephrin Alexa488 attached to a DOPC bilayer with 1% Ni2+-NTA DOGS; Nck Alexa568 and N-WASP Alexa647 added together; three color imaging of the clusters; 25 mM Hepes pH 7.5, 150 mM NaCl, 1 mM MgCl2, 1 mM BME, 0.1% BSA. Conditions: both partners purified.

B1: N-WASP BPVCA (rat, residues 183-193 fused to […]; basic, proline-rich and VCA regions) (domain or fragment)
chain: GSEFKEKKKGKAKKKRAPPPPPPSRGGPPPPPPPPHSSGPPPPPARGRGAPPPPPSRAPTAAPPPPPPSRPGVVVPPPPPNRMYPHPPPALPSSAPSGPPPPPPLSMAGSTAPPPPPPPPPPPGPPPPPGLPSDGDHQVPASSGNKAALLDQIREGAQLKKVEQNSRPV[about 80 residues left out here]
modifications: maleimide Alexa647 on the single cysteine (three color imaging)
notes: extra N-terminal residues as printed; N-WASP, rat, basic region; N-WASP, rat, proline-rich and VCA regions; […] are left out of the construct; also called N-WASP Alexa647; source: E. coli BL21(DE3)T1R, purified (Ni-NTA, Source 15Q, TEV, Source 15S, SD200)
Regarding B1, the binding result is given as “binds”.
